# Reference: PubChem BioAssay AID2546 (National Center for Advancing Translational Sciences (NCATS), 2010)
# The campaign covered roughly 310,000 compounds. About 11,000 (3.5%) were called active. Inconclusive means that the source gave no clear call. Such entries were picked first, then a sample of the others. Calls follow the shape of the dose curve; as a rule, active = well fitted inhibition curve with a large enough effect; inconclusive = small, poorly fitted or top-dose-only effect, or effect the other way; inactive = flat fitted curve, though single readings scatter. No potency is given beside an inconclusive call; the fits are too rough.
# Experiment: VP16 counterscreen qHTS for inhibitors of ROR gamma transcriptional activity;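 also: Gal4-VP16 expression switched on by copper sulfate through the metallothionein promoter; nearly all actives have a fitted effect of over 50% in size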
# Conditions: Drosophila S2 Gal4-VP16 UAS-luciferase, luminescence, 20 h; series mostly up to 53.6 µM
# Potency is read from the fitted curve at half-maximal effect; tags tell the direction and shape of the fitted curve.
row,SMILES,Potency
1,O=C(C1CCCN(S(=O)(=O)c2ccc(F)cc2)C1)N(Cc1cccs1)C1CC1 (stereo not drawn),inactive
2,c1ccc2c(c1)Cc1cc3ccccc3nc1-2,"inconclusive [inhibitor, single point]"
3,CN(Cc1ccc(F)cc1)C(=O)c1cc(COc2ccc(-n3cncn3)cc2)on1,inactive
4,Cc1cccc(-c2cc3nc(-c4ccccc4)cc(=O)n3[nH]2)c1,"inconclusive [activator, partial curve, poor fit]"
5,CCCCOC(=O)Nc1ccc2c(C)cc(=O)oc2c1,"inconclusive [activator, single point]"
6,Cc1cc(C(=O)CSc2nnc(N)s2)c(C)n1Cc1cccs1,active: 11.2 µM
7,CCn1c(CC(=O)Nc2ccccc2F)nnc1SCC(=O)Nc1nncs1,"inconclusive [inhibitor, full curve, poor fit]"
8,Cc1cccc(C(=O)NNC(=O)C23CC4CC(CC(C4)C2)C3)c1O,"inconclusive [inhibitor, single point]"
9,O=C(Nc1cccc(S(=O)(=O)N2CCCCC2)c1)c1ccccc1NS(=O)(=O)c1ccc(F)cc1,"inconclusive [inhibitor, single point]"
10,NC(=O)COC(=O)c1cccc(S(=O)(=O)N2CCN(c3ccccc3)CC2)c1,inactive
11,CCOC(=O)C1(N(CC)CC)Sc2cc(C)ccc2NC1=O (stereo not drawn),"inconclusive [inhibitor, single point]"
12,Cc1ccc(-c2c3c(nc4sc(C(N)=O)c(N)c24)CCC3)cc1,"inconclusive [inhibitor, single point]"
13,N/C(=N\OC(=O)c1cccc2ccccc12)c1ccc(Br)cc1,active: 5.01 µM
14,Cc1cc(NC(=O)CSc2nc(C3CC3)nc3sc(C)c(C)c23)no1,"inconclusive [inhibitor, single point]"
15,Cc1ccc(S(=O)(=O)ON=C2CCN(S(=O)(=O)c3ccccc3)CC2)cc1,"inconclusive [inhibitor, partial curve, poor fit]"
16,O=C(O)c1ccc(N/N=C/c2cc3cc4c(cc3nc2Cl)OCCO4)cc1,active: 3.98 µM
17,COc1cc(OC)cc(C(=O)NC(=S)NNC(=O)[C@H]2C[C@@H]2c2ccccc2)c1,"inconclusive [inhibitor, single point]"
18,C=CCn1c(SCC(=O)c2[nH]c(C)c(C(=O)OCC)c2C)nc2scc(-c3ccc(OC)c(OC)c3)c2c1=O,active: 10 µM
19,CC(=O)Oc1ccc(N(C(C)=O)S(=O)(=O)c2ccc(Cl)cc2)c2ccccc12,"inconclusive [inhibitor, partial curve, poor fit]"
20,CC(C)(COP(=O)(O)OP(=O)(O)OC[C@H]1O[C@@H](n2cnc3c(N)ncnc32)[C@H](O)[C@@H]1OP(=O)(O)O)C(O)C(=O)NCCC(=O)NCCS (stereo partly drawn),inactive
21,Cc1cccc(OCc2nnc(SCC(=O)O)n2-c2ccccc2)c1,inactive
22,Cc1ccc(S(=O)(=O)NC(CC(=O)NC2CCCC2)c2ccco2)cc1 (stereo not drawn),"inconclusive [inhibitor, single point]"

row,SMILES,Potency
1,C=CCn1c(-c2sc(-c3ccccc3)nc2C)n[nH]c1=S,"inconclusive [inhibitor, single point]"
2,CCN(c1ccccc1)S(=O)(=O)c1ccc(C(=O)Nc2nnc(COC)o2)cc1,active: 1.26 µM
3,COc1ccc2c(c1)CC/C(=C\C=C\c1ccccc1OC)C2=O,"inconclusive [inhibitor, single point]"
4,Cc1onc(-c2ccccc2Cl)c1C(=O)N1CCN(C/C=C/c2ccccc2)CC1,inactive
5,CCOc1ccc(N2C(=O)CC(N)C2=O)cc1 (stereo not drawn),active: 3.16 µM
6,COC(=O)Cc1ccc(NC(=S)N2CCN(c3cc(Cl)ccc3C)CC2)cc1,"inconclusive [inhibitor, single point]"
7,O=C(NC1=NCCS1)Nc1ccccc1,"inconclusive [inhibitor, single point]"
8,Cc1ccc(-n2c(C)cc(/C=N/NC(=O)c3ccc(CN4CCOCC4)cc3)c2C)cc1,"inconclusive [inhibitor, single point]"
9,O=C(CCCc1nc(-c2ccccc2Cl)no1)NC1CCCC1,"inconclusive [inhibitor, single point]"
10,COc1ccc(/C=N/Nc2ncnc3scc(-c4ccccc4)c23)cc1OC,active: 0.891 µM
11,Cc1ccc(OCC(=O)N2N=C(C(F)(F)F)CC2(O)C(C)(C)C)cc1C (stereo not drawn),"inconclusive [inhibitor, single point]"
12,O=C(NCCc1ccccc1)/C(=C\c1ccc([N+](=O)[O-])cc1)NC(=O)c1ccc(Br)cc1,"inconclusive [inhibitor, partial curve]"
13,CCCCOc1ccc2c(c1)C(=O)c1cc(O)ccc1-2,"inconclusive [inhibitor, single point]"
14,N#CC1(c2ccc(NC(=O)c3ccccc3F)cc2)CCCC1,"inconclusive [inhibitor, single point]"
15,CC(C)c1nnc(NC(=O)CCC(=O)N2CCN(c3ccccc3F)CC2)s1,inactive
16,Cc1ccc(NC(=O)CN2C(=O)N/C(=C/c3ccc(C)o3)C2=O)cc1,"inconclusive [inhibitor, single point]"
17,CC1(C)CC(C)(c2ccc(O)cc2O)N(c2cccc(Cl)c2)C(=S)N1 (stereo not drawn),inactive
18,O=C(/C=C/NNC(=O)c1ccccc1O)c1ccccc1,"inconclusive [inhibitor, single point]"
19,S=c1[nH]c2cc(Cl)c3cccnc3c2o1,"inconclusive [inhibitor, single point]"
20,COc1ccc(/C=N/NC(=O)c2ccc(NC(=O)c3cccc([N+](=O)[O-])c3)cc2)c(OC)c1,"inconclusive [inhibitor, partial curve]"
21,NC(=O)CC(NC(=O)c1ccccc1)c1ccc(N2CCN(c3ccccc3)CC2)c([N+](=O)[O-])c1 (stereo not drawn),"inconclusive [inhibitor, single point]"
